This note sets out measurements from the supplement of paper PMC10037445.

Assay [1] has as its system RAW-Dual. Briefly: NF-kB SEAP reporter activity, fold change vs agonist alone; higher = enhanced NF-kB activity. The method in brief: (§1)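 Reporter activity is given as fold change relative to agonist-alone wells. To measure it, 50 nL of library stock was pin-tooled onto RAW-Dual macrophages (50,000 cells/well, DMEM, 384-well plates), a PRR agonist followed 1 h later, and cells stayed at 37 °C, 5% CO2. Twenty hours on, supernatant was assayed for IRF (QuantiLuc luminescence) and NF-κB (QuantiBlue, 620 nm absorbance), and wells under 70% of agonist-control IncuCyte confluency in both mask sets were marked cytotoxic.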

In assay [2] the test system is RAW-Dual. The assay can be described thus: NF-kB SEAP reporter activity, fold change vs agonist alone; cytotoxicity flag (confluency mask): cytotoxic (confluency <70% of control); higher = enhanced NF-kB activity. The method in brief: as §1
Assay [3] deals with RAW-Dual. Briefly: NF-kB SEAP reporter activity, fold change vs agonist alone; cytotoxicity flag (confluency mask): not cytotoxic; higher = enhanced NF-kB activity. The procedure, abridged: as §1
The mark [4] stands for this setting: agonist: ODN 1826 (TLR9) 0.5 ug/mL.
[5] abbreviates: agonist: Pam2CSK4 (TLR2/6) 0.1 ug/mL.
The mark [6] stands for this setting: agonist: Pam3CSK4 (TLR2/1) 0.1 ug/mL.
Setting [7] is: library stock concentration (final ~1000-fold dilution): 10 mM, cytotoxicity flag (confluency mask): not cytotoxic, agonist: Imiquimod (TLR7) […].
Where [8] appears, read: library stock concentration (final ~1000-fold dilution): 10 mM, cytotoxicity flag (confluency mask): not cytotoxic, agonist: MPLA (TLR4) […].

“And” between values parts separate entries of the source, which are not always exact repeats. Identical values can stand only once. In all, about 2,900 compounds were measured (“NF-kB SEAP reporter activity, fold change vs agonist alone”: median about 0.99, highest 2% from about 2.6 on). The list shows a part of the results.

Regarding `CS(=O)(=O)O.O=C(Nc1cccc(Cl)c1)Nc1ncc(CCNc2ncnc3ccsc23)s1`, the “NF-kB SEAP reporter activity” value is 0.503 in the assay on RAW-Dual [1] (library stock concentration (final ~1000-fold dilution): 10 mM, cytotoxicity flag (confluency mask): cytotoxic (confluency <70% of control), agonist: Imiquimod (TLR7) […]) and 0.512 in the assay with RAW-Dual [1] (library stock concentration (final ~1000-fold dilution): 10 mM, cytotoxicity flag (confluency mask): cytotoxic (confluency <70% of control), agonist: MPLA (TLR4) […]).

Regarding `CS(=O)(=O)O.O=C(Nc1cccc(Cl)c1)Nc1ncc(CCNc2ncnc3ccsc23)s1` (library stock concentration (final ~1000-fold dilution): 10 mM), the “NF-kB SEAP reporter activity” value is 1 in the assay on RAW-Dual [2] (agonist: LPS (TLR4) 0.1 ug/mL), 0.54 with RAW-Dual [2] (setting [4]), 0.153 with RAW-Dual [2] (setting [5]) and 0.292 with RAW-Dual [2] (setting [6]).

`Br.COc1ccc2c3c1OC1CC(O)C=CC31CCN(C)C2` (stereo not drawn) (library stock concentration (final ~1000-fold dilution): 10 mM water): the “NF-kB SEAP reporter activity” value in the assay on RAW-Dual [3] (agonist: LPS (TLR4) 0.1 ug/mL) is 1.12; in the assay with RAW-Dual [3] (setting [4]), 1.02; in the assay on RAW-Dual [3] (setting [5]) it was 1.12; in the assay on RAW-Dual [3] (setting [6]), 1.16.

`Br.COc1ccc2c3c1OC1CC(O)C=CC31CCN(C)C2` (stereo not drawn): the “NF-kB SEAP reporter activity” value with RAW-Dual [1] (library stock concentration (final ~1000-fold dilution): 10 mM water, cytotoxicity flag (confluency mask): not cytotoxic, agonist: Imiquimod (TLR7) […]) was found to be 0.936; in the assay with RAW-Dual [1] (library stock concentration (final ~1000-fold dilution): 10 mM water, cytotoxicity flag (confluency mask): not cytotoxic, agonist: MPLA (TLR4) […]), 0.997.

Consider `CN(C(=O)n1cnc(-c2ccc[n+]([O-])c2)c1)C1CCCCC1`, for which the “NF-kB SEAP reporter activity” value was 0.995 in the assay with RAW-Dual [1] (setting [7]) and 1.03 in the assay with RAW-Dual [1] (setting [8]).

For the molecule `CN(C(=O)n1cnc(-c2ccc[n+]([O-])c2)c1)C1CCCCC1` (library stock concentration (final ~1000-fold dilution): 10 mM), the “NF-kB SEAP reporter activity” value in the assay with RAW-Dual [3] (agonist: LPS (TLR4) 0.1 ug/mL) amounted to 1.04; in the assay with RAW-Dual [3] (setting [4]), 0.925; in the assay with RAW-Dual [3] (setting [5]), 0.966; in the assay with RAW-Dual [3] (setting [6]), 1.01.

`CC(CN1CC(=O)NC(=O)C1)N1CC(=O)NC(=O)C1.Cl` (stereo not drawn) (library stock concentration (final ~1000-fold dilution): 10 mM): the “NF-kB SEAP reporter activity” value came out at 1.08 in the assay on RAW-Dual [3] (agonist: LPS (TLR4) 0.1 ug/mL), 1.13 in the assay on RAW-Dual [3] (setting [4]), 1 in the assay with RAW-Dual [3] (setting [5]) and 1.01 with RAW-Dual [3] (setting [6]).

In the case of `CC(CN1CC(=O)NC(=O)C1)N1CC(=O)NC(=O)C1.Cl` (stereo not drawn), the “NF-kB SEAP reporter activity” value in the assay with RAW-Dual [1] (setting [7]) was determined as 0.988; in the assay with RAW-Dual [1] (setting [8]), 0.998.

`NC1(C(=O)NC(CCO)c2ccc(Cl)cc2)CCN(c2ncnc3[nH]ccc23)CC1` (stereo not drawn): the entries for the “NF-kB SEAP reporter activity” value with RAW-Dual [1] (setting [7]) and in the assay on RAW-Dual [1] (setting [8]) were 0.829 and 0.793, respectively.

For `NC1(C(=O)NC(CCO)c2ccc(Cl)cc2)CCN(c2ncnc3[nH]ccc23)CC1` (stereo not drawn) (library stock concentration (final ~1000-fold dilution): 10 mM), the “NF-kB SEAP reporter activity” value with RAW-Dual [3] (agonist: LPS (TLR4) 0.1 ug/mL) is 0.9; in the assay on RAW-Dual [3] (setting [4]), 1.06; in the assay with RAW-Dual [3] (setting [5]), 0.974; with RAW-Dual [3] (setting [6]) it was 0.723.

As for `COC1(c2sc3c(N4CCOCC4)nc(-c4cnc(N)nc4)nc3c2C)COC1` (library stock concentration (final ~1000-fold dilution): 10 mM), the “NF-kB SEAP reporter activity” value with RAW-Dual [3] (agonist: LPS (TLR4) 0.1 ug/mL) came to 1.46; with RAW-Dual [3] (setting [4]), 0.707; in the assay with RAW-Dual [3] (setting [5]) it was 0.459; in the assay with RAW-Dual [3] (setting [6]), 0.608.

Take `COC1(c2sc3c(N4CCOCC4)nc(-c4cnc(N)nc4)nc3c2C)COC1`: the “NF-kB SEAP reporter activity” value amounted to 0.913 in the assay with RAW-Dual [1] (setting [7]) and 1.05 in the assay on RAW-Dual [1] (setting [8]).

With `CCOC(=O)C1=C(C)NC(C)=C(C(=O)OC)C1c1cccc([N+](=O)[O-])c1` (stereo not drawn) (library stock concentration (final ~1000-fold dilution): 10 mM), the “NF-kB SEAP reporter activity” value in the assay on RAW-Dual [3] (agonist: LPS (TLR4) 0.1 ug/mL) is 0.655; in the assay with RAW-Dual [3] (setting [4]), 0.533; in the assay with RAW-Dual [3] (setting [5]) it was 0.498; in the assay with RAW-Dual [3] (setting [6]), 0.496.

Take `CCOC(=O)C1=C(C)NC(C)=C(C(=O)OC)C1c1cccc([N+](=O)[O-])c1` (stereo not drawn): the entries for the “NF-kB SEAP reporter activity” value in the assay with RAW-Dual [1] (setting [7]) and in the assay with RAW-Dual [1] (setting [8]) were 0.846 and 0.826, respectively.

Take `CC(C)(C)c1ccc(Cn2nc(-c3ccc(Cl)cc3)cc2C(=O)NO)cc1` (library stock concentration (final ~1000-fold dilution): 10 mM): the “NF-kB SEAP reporter activity” value stood at 1.32 in the assay on RAW-Dual [3] (agonist: LPS (TLR4) 0.1 ug/mL), 1.24 in the assay on RAW-Dual [3] (setting [4]), 0.824 with RAW-Dual [3] (setting [5]) and 0.964 with RAW-Dual [3] (setting [6]).

For `CC(C)(C)c1ccc(Cn2nc(-c3ccc(Cl)cc3)cc2C(=O)NO)cc1`, the “NF-kB SEAP reporter activity” value in the assay on RAW-Dual [1] (setting [7]) was found to be 1.47; in the assay on RAW-Dual [1] (setting [8]) it was 1.5.

Regarding `CCC(C)C(=O)OC1CC(O)C=C2C=CC(C)C(CCC(O)CC(O)CC(=O)O)C21` (stereo not drawn) (library stock concentration (final ~1000-fold dilution): 10 mM), the “NF-kB SEAP reporter activity” value in the assay with RAW-Dual [3] (agonist: LPS (TLR4) 0.1 ug/mL) is 1.01 and 1.04; with RAW-Dual [3] (setting [4]), 1 and 1.02; with RAW-Dual [3] (setting [5]), 1.08 and 1.05; in the assay on RAW-Dual [3] (setting [6]), 0.841 and 1.15.

Take `Cc1c[nH]c(-c2cnc(NCCNc3ccc(C#N)cn3)nc2-c2ccc(Cl)cc2Cl)n1` (library stock concentration (final ~1000-fold dilution): 10 mM): the results for the “NF-kB SEAP reporter activity” value with RAW-Dual [3] (agonist: LPS (TLR4) 0.1 ug/mL), in the assay on RAW-Dual [3] (setting [4]) and in the assay with RAW-Dual [3] (setting [6]) were 3.08, 2.65 and 2.9, respectively.

For `Fc1ccc2[nH]ccc2c1-c1nc(N2CCOCC2)c2sc(CN3CCN(CC4CC4)CC3)cc2n1` (library stock concentration (final ~1000-fold dilution): 10 mM), the “NF-kB SEAP reporter activity” value with RAW-Dual [3] (agonist: LPS (TLR4) 0.1 ug/mL) was 2.9; with RAW-Dual [3] (setting [4]) it was 0.272; in the assay with RAW-Dual [3] (setting [5]), 1.03; with RAW-Dual [3] (setting [6]) it was 0.935.

Turning to `Fc1ccc2[nH]ccc2c1-c1nc(N2CCOCC2)c2sc(CN3CCN(CC4CC4)CC3)cc2n1`, the “NF-kB SEAP reporter activity” value in the assay with RAW-Dual [1] (setting [7]) was 0.944; in the assay on RAW-Dual [1] (setting [8]) it was 1.25.

In the case of `Cc1ccc(NC(=O)Nc2cc(C(F)(F)F)ccc2F)cc1Nc1ccc2c(c1)NC(=O)/C2=C\c1ccc[nH]1`, the “NF-kB SEAP reporter activity” value with RAW-Dual [1] (setting [7]) was 0.943; in the assay on RAW-Dual [1] (setting [8]), 0.689.

`Cc1ccc(NC(=O)Nc2cc(C(F)(F)F)ccc2F)cc1Nc1ccc2c(c1)NC(=O)/C2=C\c1ccc[nH]1` (library stock concentration (final ~1000-fold dilution): 10 mM): the “NF-kB SEAP reporter activity” value with RAW-Dual [3] (agonist: LPS (TLR4) 0.1 ug/mL) stood at 0.677; in the assay on RAW-Dual [3] (setting [4]) it was 0.817; with RAW-Dual [3] (setting [5]) it was 0.337; with RAW-Dual [3] (setting [6]), 0.197.

Turning to `CNC(=O)c1ccccc1Sc1ccc2c(/C=C/c3ccccn3)n[nH]c2c1`, the “NF-kB SEAP reporter activity” value in the assay on RAW-Dual [1] (setting [7]) worked out at 0.538; with RAW-Dual [1] (setting [8]) it was 1.04.

Take `CNC(=O)c1ccccc1Sc1ccc2c(/C=C/c3ccccn3)n[nH]c2c1` (library stock concentration (final ~1000-fold dilution): 10 mM): the “NF-kB SEAP reporter activity” value with RAW-Dual [3] (agonist: LPS (TLR4) 0.1 ug/mL) amounted to 0.907; with RAW-Dual [3] (setting [4]), 0.847; in the assay with RAW-Dual [3] (setting [5]) it was 0.774; with RAW-Dual [3] (setting [6]), 0.757.
